PubChem BioAssay AID485294 (National Center for Advancing Translational Sciences (NCATS), 2010)
Hit rate of the full screen: of about 370,000 compounds, about 150 (0.041%) were called active. The inconclusive results got no clear call from the source; some entries with a clear call stand among them for comparison. Calls follow the shape of the dose curve; as a rule, active = well fitted inhibition curve with a large enough effect; inconclusive = small, poorly fitted or top-dose-only effect; inactive = flat fitted curve, though single readings scatter. Potencies of inconclusive entries are left out as doubtful fits.

Molecular target: Beta-lactamase (Escherichia coli (strain K12)) (UniProt P00811)
UniProt P00811, sequence (P00811 whole entry, looked up): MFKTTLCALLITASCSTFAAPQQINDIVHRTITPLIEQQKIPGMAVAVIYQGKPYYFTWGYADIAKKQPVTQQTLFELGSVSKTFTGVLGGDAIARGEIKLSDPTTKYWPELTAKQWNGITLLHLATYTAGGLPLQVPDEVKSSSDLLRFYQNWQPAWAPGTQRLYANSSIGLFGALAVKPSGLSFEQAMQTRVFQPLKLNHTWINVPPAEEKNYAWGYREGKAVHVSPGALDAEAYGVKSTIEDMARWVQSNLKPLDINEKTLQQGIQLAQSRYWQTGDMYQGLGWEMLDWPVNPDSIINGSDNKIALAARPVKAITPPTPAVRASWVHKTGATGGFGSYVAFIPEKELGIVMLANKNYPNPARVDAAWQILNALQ
Assay: qHTS Inhibitors of AmpC Beta-Lactamase (assay with detergent); also: nearly all actives have a fitted effect of over 25% in size;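 as to activity change, negative = inhibition: 0% = no-compound wells and -100% = no-enzyme wells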
Conditions: AmpC hydrolysis of nitrocefin, absorbance 480 nm, 0.01% Triton; activity change, negative = inhibition: at 114 µM (top of the series)
Method in brief: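 AmpC (5.3 nM in the dispensed reagent) in 20 mM phosphate pH 7.0 with 0.01% (detergent screen) or 0.0001% Triton X-100 was preincubated with compounds for 15 min at room temperature. Nitrocefin was then added from an 800 uM solution, and hydrolysis was followed at 480 nm.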
Potency is read from the fitted curve at half-maximal effect; tags tell the direction and shape of the fitted curve.

SMILES	Potency	activity change, negative = inhibition
O=C(NC1CCCCC1)NC1CC2CCC(C1)N2Cc1nnnn1Cc1ccc2c(c1)OCO2 (stereo not given)	inconclusive [inhibitor, full curve, poor fit]	–
COc1oc(-c2ccccc2C)nc1C(F)(F)F	inconclusive [inhibitor, partial curve, poor fit]	–
N#Cc1ccccc1S(=O)(=O)N1CCN(C(=O)c2cc(=O)[nH]c3ccccc23)CC1	inconclusive [inhibitor, partial curve, poor fit]	–
O=[N+]([O-])c1ccc(C[n+]2cccc3ccccc32)cc1	inconclusive [inhibitor, partial curve]	–
COc1ccccc1OCC(=O)N(Cc1nc(-c2ccc(Cl)cc2)no1)C(C)C	inconclusive [inhibitor, full curve]	–
CCCCOC(=O)NS(=O)(=O)c1sc(CC(C)C)cc1-c1ccc(Cn2c(CC)nc3c(C)cc(C)nc32)cc1	inconclusive [inhibitor, full curve, poor fit]	–
Nc1cc(OC(=O)c2ccccc2Br)nn1S(=O)(=O)c1ccccc1	inconclusive [inhibitor, full curve]	–
CC1CN=C(N(C(=O)Nc2ccccc2)c2ccc(F)cc2)S1 (stereo not given)	–	inactive: -8.2%
O=C(Cc1ccccc1)NC(Cc1ccc(Cl)cc1)C(=O)O (stereo not given)	–	inactive: -5.92%
C/C(CC(=O)Nc1ccc(Cl)c(C(F)(F)F)c1)=N\NC(=O)c1cc2ccccc2cc1O	–	inactive: -5.83%
COc1ccccc1N1CCN(C(CNC(=O)c2ccco2)c2cccnc2)CC1 (stereo not given)	inconclusive [inhibitor, full curve, poor fit]	–
OCC[C@@H]1C[C@H](O)[C@@H](O)[C@@]2(CCc3ccccc3CO2)O1	inconclusive [inhibitor, partial curve, poor fit]	–
Cc1sc2nc(SCc3ccccc3)n(Cc3ccco3)c(=O)c2c1C	–	inactive: -5.38%
COc1ccccc1NC(=O)CSc1nnc(-c2ccccc2)o1	inconclusive [inhibitor, full curve]	–
COc1cc(/C=N/NC(=O)c2cccc3ccccc23)cc(OC)c1O	inconclusive [inhibitor, full curve, poor fit]	–
Cc1cccn2c(=O)c(/C=C(\C#N)c3nc4ccccc4n3C)c(Oc3ccc(Br)cc3)nc12	–	inactive: 19.3%
O=[N+]([O-])c1ccccc1N/N=C/c1ccccc1	–	inactive: -3.67%
Brc1ccc(-c2nnc(Cc3ccccc3)o2)cc1	–	inactive: 0.978%
CSCc1c(C(=O)Nc2ccccc2N2CCOCC2)oc2ccccc12	inconclusive [inhibitor, full curve, poor fit]	–
COc1ccc(OC)c(N=Cc2c(O)[nH]c3ccccc23)c1	inconclusive [inhibitor, full curve, poor fit]	–
Nc1ccccc1SCc1cn2cccnc2n1	inconclusive [inhibitor, full curve, poor fit]	–
CC(C)(C)C1CCC2(CC1)Nc1cccc3cccc(c13)N2	inconclusive [inhibitor, partial curve]	–
COc1ccc(CNC(=O)CCn2nc(C)c3c(C)n(-c4ccccc4)nc3c2=O)cc1OC	–	inactive: 24.7%
CCOC(=O)C1(c2ccccc2)CCN(CCC(=O)Nc2ccc(C(=O)OC)cc2)CC1	inconclusive [inhibitor, full curve, poor fit]	–

SMILES	Potency	activity change, negative = inhibition
CCOC(=O)CSc1nnc(CNc2ccc(F)cc2)o1	inconclusive [inhibitor, full curve, poor fit]	–
O=Cc1c(NCc2ccco2)nc2ccccn2c1=O	–	inactive: -4.24%
O=C(Nc1ccc(Cl)cc1)c1ccc(CN2CCc3ccccc3C2)cc1	–	inactive: 2.56%
Clc1ccc2c(c1)C1OCCC1C(c1ccco1)N2 (stereo not given)	inconclusive [inhibitor, full curve]	–
O=C(Cc1ccc([N+](=O)[O-])cc1)Nc1cccc(C(F)(F)F)c1	inconclusive [inhibitor, full curve]	–
COc1ccc2c(c1)C(C)=CC(C)(C)N2C(=O)CN1C(=O)CCC1=O	inconclusive [inhibitor, full curve, poor fit]	–
Cc1cc(O)c(C(c2ccc(F)cc2)N2CCCCC2)c(=O)n1Cc1ccco1 (stereo not given)	–	inactive: -1.44%
CC(=O)NC1=NC(=O)/C(=C/N2CCOCC2)S1	inconclusive [inhibitor, single point]	–
COc1cc2cc(C(=O)N3CCOCC3)cc(-c3ccc(C)cc3)c2cc1OC	–	inactive: -3.12%
O=C1NC(c2cccs2)C(C(=O)c2ccccc2)C(O)(C(F)(F)F)N1 (stereo not given)	inconclusive [inhibitor, full curve, poor fit]	–
COc1ccc2oc(CS(=O)c3ccccc3)c(C(=O)O)c2c1 (stereo not given)	inconclusive [inhibitor, full curve, poor fit]	–
O=C(O)c1cccc2[nH]c(C(F)(F)F)nc12	inconclusive [inhibitor, partial curve, poor fit]	–
Cc1noc(NS(=O)(=O)c2ccc(N/C=C\C(=O)c3ccncc3)cc2)c1C	inconclusive [inhibitor, full curve]	–
Cc1ccc(C)c(NC(=O)CN(C)C(=O)Cn2c(=O)oc3ccccc32)c1	inconclusive [inhibitor, full curve, poor fit]	–
CC(=O)N1[C@H](Cc2ccccc2)C=C[C@]1(C)C(=O)NCc1ccc(C)o1	–	inactive: -6.27%
COC(=O)C1=C(C)N(Cc2ccccc2)C(=NCCCCO)N[C@H]1c1cccc(C(F)(F)F)c1	inconclusive [inhibitor, full curve]	–
FC(F)(F)c1ccccc1-n1ccnc1	inconclusive [inhibitor, full curve, poor fit]	–
COc1ccc(CCN2C(=O)C3C4CCC(C4=C(C)C)C3C2=O)cc1OC (stereo not given)	inconclusive [inhibitor, full curve]	–
O=C(O)c1cccc(Cn2c(Cl)c(/C=N/Nc3ccccc3)sc2=O)c1	–	inactive: -11.3%
Cc1c(C(=S)Nc2ccccc2)cnn1-c1ccccc1	–	inactive: -0.778%
Cc1ccc(C2CN(c3ccccc3)CC2C(=O)c2ccc(F)cc2)cc1 (stereo not given)	inconclusive [inhibitor, single point]	–
Cc1ccccc1C(=O)c1cccn1CC(=O)NC(C)CCc1ccccc1 (stereo not given)	inconclusive [inhibitor, full curve]	–
CCOc1cc(C2C(C(=O)OC)=C(C)NC3=C2C(=O)c2ccccc23)ccc1O (stereo not given)	–	inactive: -0.36%
COc1ccc2oc(=O)cc(CN(C)Cc3ccccc3)c2c1	inconclusive [inhibitor, full curve]	–

SMILES	Potency	activity change, negative = inhibition
COc1ccccc1-c1nc(S(=O)(=O)c2ccc(Cl)cc2)c(N2CCCCCC2)o1	–	inactive: 15.7%
CCC(=O)NC(c1ccccc1OC)c1ccc2cccnc2c1O (stereo not given)	inconclusive [inhibitor, partial curve, poor fit]	–
N#Cc1cc(Oc2ccc3ccccc3c2)c(-n2nnc3ccccc32)cc1C#N	inconclusive [inhibitor, full curve, poor fit]	–
O=C(Nc1ccc2nc3n(c(=O)c2c1)CCCC3)c1cccc([N+](=O)[O-])c1	inconclusive [inhibitor, full curve, poor fit]	–
CC(=O)Nc1ccc2nc(NC(=O)c3ccco3)sc2c1	inconclusive [inhibitor, partial curve, poor fit]	–
COc1ccccc1C(=O)Nc1ccc2c(c1)nc1n2CCN(Cc2ccccc2)C1	inconclusive [inhibitor, full curve, poor fit]	–
COc1cc(C(F)(F)F)c(C(=O)N(C)Cc2cc(Cl)cc(Cl)c2)cn1	–	inactive: -6.72%
C=CCn1c(C)cc(C2=NNC(=NCc3ccccc3)SC2)c1C	–	inactive: 3.54%
O=C(COC(=O)Cc1c(Cl)cccc1Cl)Nc1ccccc1-c1ccccc1	–	inactive: 2.43%
CCCOc1ccc(C(=O)Nc2cccc(-c3nc4ccccc4[nH]3)c2)cc1	–	inactive: 2.45%
CC1=Nc2ccccc2N=C(NC(=O)CSc2nnnn2-c2ccccc2)C1c1ccccc1 (stereo not given)	–	inactive: 0.731%
COc1cc2c(cc1OC)-c1cc(NCc3ccccn3)nc(=O)n1CC2	inconclusive [inhibitor, full curve, poor fit]	–
COc1ccccc1-c1ccc(=O)n(CC(=O)NCc2ccco2)n1	–	inactive: -13.5%
Cc1ccc2nc(-c3ccccc3)cc(C(=O)NCCCn3ccnc3)c2c1	–	inactive: 2.63%
CCN1CCN(Cc2c(O)ccc3c2O/C(=C\C=C\c2ccccc2)C3=O)CC1	inconclusive [inhibitor, partial curve, poor fit]	–
CNC(=O)Cn1nc(-c2ccc(C)c(S(=O)(=O)N(C)C)c2)c2ccccc2c1=O	–	inactive: 2.38%
COC(=O)CC1C(=O)NCCN1C(=S)NC(=O)CCc1ccccc1 (stereo not given)	inconclusive [inhibitor, full curve, poor fit]	–
O=C1c2ccccc2C(=O)N1c1ncc(Cc2ccc(Cl)cc2)s1	inconclusive [inhibitor, full curve, poor fit]	–
CC(C)CN(C(=O)C1CCCO1)C1CCS(=O)(=O)C1 (stereo not given)	inconclusive [inhibitor, full curve, poor fit]	–
O=C1CCCN1CN1CCCCC1	inconclusive [inhibitor, single point]	–
COc1ccc([C@H]2CC(=O)C=C(c3ccc4cc[nH]c4c3)C2)cc1	–	inactive: 0.313%
Cc1ccc(OCC(=O)NCCS(=O)(=O)N2CCN(c3ccccc3)CC2)cc1	inconclusive [inhibitor, full curve, poor fit]	–
